# Measured values reported in the supplement of paper PMC10338343.
# ± gives the standard deviation. This is a selection; strong and weak results do not stand in their true shares.
# Tested on: MIWI (PIWIL1) piRISC loaded with piRNA #1 (30 nt)
# Assay: pre-steady-state target cleavage rate (min^-1); MIWI and MILI are mouse PIWI proteins and EfPiwi is from a freshwater sponge; tags in brackets are library labels; higher = faster piRNA-guided slicing of the target
# Conditions: guide: piRNA #1 5'p-UGAGGUAGUAGGUUGUAUAGUAUCCAGAGG; auxiliary factor: 500 nM mouse GTSF1
# Procedure, shortened: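 Using HEPES–potassium acetate buffer at 33 °C, 1 nM active affinity-purified piRISC with a single synthetic guide was mixed with 0.1 nM transcribed, DNA-blocked target RNA library for 0–8 or 0–960 min, with or without 500 nM GTSF1 partner protein. Uncleaved targets were sequenced and normalised to depth and to weakly complementary targets, and three trials were pooled with k3 capped at 0.0001 min^-1. A burst-and-steady-state fit gave the pre-steady-state cleavage rate.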
row,Sequence,pre-steady-state target cleavage rate
1,GCUCUGGAUACUAUAACAACCUACUACCUCA,1.92 ± 0.14
2,CCUCUGGAAACUAAACAACCUACUACCUCA,2 ± 0.13
3,GGUCUGGUAACUAUACAACCUACUACCUCA,1.71 ± 0.097
4,GCUCUGGAUACUAUACAACCUGACUACCUCA,0.00419 ± 0.0023
5,GGAGACCUAUCUAUACAACCUACUACGAGA,0.297 ± 0.068
6,GGAGUGGUUACUAUACAACCUACUAGCUCA,0.0393 ± 0.0076
7,GGAGACCUAUGAUUACAACCUACUUGGUCA,< 0.0001
8,CCUCUGGAUACUAUACAUCCUACUUCCUCA,0.401 ± 0.059
9,GGAGACCUAUCUAUACAACCUUCUAGCUCA,0.0565 ± 0.01
10,CCUCUAGGAUACUAUACAACCUACUACCUCA,2.12 ± 0.12
11,GGAGACCUAUCUAUACAACGUAGUACCUCA,0.00805 ± 0.0018
12,GGUCUGGAUACUAUACAACCAACUACCUCA,0.149 ± 0.015
13,CCUCUGGAUUCUAUACAUCCUACUACCUCA,1.35 ± 0.074
14,GGAGAGGAUACUAUACAACCUACUACCUUCA,1.14 ± 0.058
15,GGAGACGAUACUAUACAUCCUACUACGUCA,0.76 ± 0.062
